± gives the standard deviation of the averaged measurements. Laboratory Escherichia coli strains with one amino-acid change in an essential protein, pooled on minimal glucose agar with carbenicillin or gentamicin at twice the control MIC (plus kanamycin and chloramphenicol for the plasmids), 48 h. Fold change of barcode share against drug-free plates; higher = less susceptible. Active = above 20 in both replicates (the paper's putatively resistant). '<' = one read or none on drug, '>' = one read or none on a drug-free plate. Shares are relative, so most strains fall below 1 when a few take over. Listed are strains with at least 15 reads on both drug-free plates, and hits; most hits rest on fewer reference reads. Replicate rank correlation about 0.5. Edits are read from barcodes.
B1: secE; a variant is named by its letters at X, in order (parent)
chain: MSANTEAQGSGRGLEAMKWXXVXAXLLVAIVGNYLYRDIMLPLRALAVXILIAAAGGVALLTTKGKATVAFAREARTEVRKVIWPTRQETLHTTLIVAAVTAVMSLILWGLDGILVRLVSFITGLRF
B2: waaA; numbered along this chain (parent)
chain: MLELLYTALLYLIQPLIWIRLWVRGRKAPAYRKRWGERYGFYRHPLKPGGIMLHSVSVGETLAAIPLVRALRHRYPDLPITVTTMTPTGSERVQSAFGKDVQHVYLPYDLPDALNRFLNKVDPKLVLIMETELWPNLIAALHKRKIPLVIANARLSARSAAGYAKLGKFVRRLLRRITLIAAQNEEDGARFVALGAKNNQVTVTGSLKFDISVTPQLAAKAVTLRRQWAPHRPVWIATSTHEGEESVVIAAHQALLQQFPNLLLILVPRHPERFPDAINLVRQAGLSYITRSSGEVPSTSTQVVVGDTMGELMLLYGIADLAFVGGSLVERGGHNPLEAAAHAIPVLMGPHTFNFKDICARLEQASGLITVTDATTLAKEVSSLLTDADYRSFYGRHAVEVLYQNQGALQRLLQLLEPYLPPKTH
B3: pth; numbered along this chain (parent)
chain: MTIKLIVGLANPGAEYAATRHNAGAWFVDLLAERLRAPLREEAKFFGYTSRVTLGGEDVRLLVPTTFMNLSGKAVAAMASFFRINPDEILVAHDELDLPPGVAKFKLGGGHGGHNGLKDIISKLGNNPNFHRLRIGIGHPGDKNKVVGFVLGKPPVSEQKLIDEAIDEAARCTEMWFTDGLTKATNRLHAFKAQ

Variants of: B1
Test: barcode share on antibiotic plates over drug-free plates; higher = less susceptible
Conditions: with Escherichia coli (laboratory strain); antibiotic: carbenicillin; 2× MIC (3.1 µg/mL)
Procedure: (§1)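 A pool of E. coli strains, each edited to carry one amino-acid change in an essential protein, was grown for 48 h on minimal glucose agar with or without antibiotic; strain barcodes were sequenced; mean of two replicates.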
For AVVLV, the “fold change of barcode share” value was 0.811 ± 0.19. In the case of VVVDV, the “fold change of barcode share” value is reported as 0.301 ± 0.084. With VAVLV the “fold change of barcode share” value was 0.574 ± 0.2. In the case of VVPLV, the “fold change of barcode share” value is reported as 0.349 ± 0.1. In the case of VVVLQ, the “fold change of barcode share” value is reported as 0.261 ± 0.027. For VVVLD, the “fold change of barcode share” value was 0.208 ± 0.041. For VVVLA, the “fold change of barcode share” value was 0.174 ± 0.085. In the case of VVVLP, the “fold change of barcode share” value is reported as 0.244 ± 0.11. VVQLV was tested, and the “fold change of barcode share” value was 0.693 ± 0.075. For WVVLV, the “fold change of barcode share” value was 0.79 ± 0.16. With VVVAV the “fold change of barcode share” value was 0.25 ± 0.059. In the case of VPVLV, the “fold change of barcode share” value is reported as 0.666 ± 0.17. QVVLV was tested, and the “fold change of barcode share” value was 0.444 ± 0.02.

Same assay, conditions: with Escherichia coli (laboratory strain); antibiotic: gentamicin; 2× MIC (MIC 0.45 µg/mL)
With AVVLV the “fold change of barcode share” value was 0.0434 ± 0.054. With VVVDV the “fold change of barcode share” value was 0.00216 ± 0.0013. VAVLV was tested, and the “fold change of barcode share” value was 0.00501 ± 0.0026. For VVPLV, the “fold change of barcode share” value was 0.00313 ± 0.0019. In the case of VVVLQ, the “fold change of barcode share” value is reported as under 0.00719. VVVLD was tested, and the “fold change of barcode share” value was 0.0149 ± 0.012. With VVVLA the “fold change of barcode share” value was 0.591 ± 0.26. For VVVLP, the “fold change of barcode share” value was under 0.00584. In the case of VVQLV, the “fold change of barcode share” value is reported as 0.00311 ± 0.00074. For WVVLV, the “fold change of barcode share” value was 0.0021 ± 0.0016. VVVAV was tested, and the “fold change of barcode share” value was 0.0132 ± 0.016. With VPVLV the “fold change of barcode share” value was 0.00352 ± 0.0013. QVVLV was tested, and the “fold change of barcode share” value was 0.00667 ± 0.0048.

Variants of: B2
Test: as above
Conditions: with Escherichia coli (laboratory strain); antibiotic: carbenicillin; 2× MIC (3.1 µg/mL)
Procedure: as §1
With L53Q the “fold change of barcode share” value was 0.341 ± 0.13. In the case of L53A, the “fold change of barcode share” value is reported as 0.499 ± 0.42. In the case of L53W, the “fold change of barcode share” value is reported as 0.458 ± 0.22. With V170W the “fold change of barcode share” value was 0.483 ± 0.2. In the case of V170Q, the “fold change of barcode share” value is reported as 0.195 ± 0.018. V170A was tested, and the “fold change of barcode share” value was 0.544 ± 0.42. V170D was tested, and the “fold change of barcode share” value was 0.743 ± 0.24. V170P was tested, and the “fold change of barcode share” value was 0.291 ± 0.2. V267P was tested, and the “fold change of barcode share” value was 0.166 ± 0.033. In the case of V248A, the “fold change of barcode share” value is reported as 0.28 ± 0.045. For V248P, the “fold change of barcode share” value was 0.227 ± 0.016. V248Q was tested, and the “fold change of barcode share” value was 1.96 ± 2.4. With I138A the “fold change of barcode share” value was 0.354 ± 0.064. For I138D, the “fold change of barcode share” value was 0.265 ± 0.09. With I138Q the “fold change of barcode share” value was 0.373 ± 0.24. In the case of F169Q, the “fold change of barcode share” value is reported as 0.324 ± 0.065. With F169D the “fold change of barcode share” value was 0.397 ± 0.17. F169W was tested, and the “fold change of barcode share” value was 0.281 ± 0.021. In the case of F169A, the “fold change of barcode share” value is reported as 0.267 ± 0.0077. In the case of I369W, the “fold change of barcode share” value is reported as 0.527 ± 0.45. For I369D, the “fold change of barcode share” value was 0.587 ± 0.07. In the case of I369Q, the “fold change of barcode share” value is reported as 0.301 ± 0.059. In the case of I369A, the “fold change of barcode share” value is reported as 0.272 ± 0.021.

Same assay, conditions: with Escherichia coli (laboratory strain); antibiotic: gentamicin; 2× MIC (MIC 0.45 µg/mL)
L53Q was tested, and the “fold change of barcode share” value was under 0.00954. L53A was tested, and the “fold change of barcode share” value was under 0.00846. L53W was tested, and the “fold change of barcode share” value was under 0.00697. In the case of V170W, the “fold change of barcode share” value is reported as under 0.00441. In the case of V170Q, the “fold change of barcode share” value is reported as 0.004998 ± 7.9e-06. V170A was tested, and the “fold change of barcode share” value was under 0.0109. For V170D, the “fold change of barcode share” value was under 0.00291. For V170P, the “fold change of barcode share” value was 0.013 ± 0.0045. In the case of V267W, the “fold change of barcode share” value is reported as 0.0203 ± 0.00049. With V267P the “fold change of barcode share” value was under 0.00868. With V267A the “fold change of barcode share” value was under 0.0104. V248D was tested, and the “fold change of barcode share” value was 0.00259 ± 0.0013. For V248A, the “fold change of barcode share” value was 0.00368 ± 0.002. For V248P, the “fold change of barcode share” value was 0.00355 ± 0.00041. For V248Q, the “fold change of barcode share” value was 0.0518 ± 0.026. In the case of I138A, the “fold change of barcode share” value is reported as under 0.0056. With I138D the “fold change of barcode share” value was 0.471 ± 0.65. In the case of I138Q, the “fold change of barcode share” value is reported as under 0.0115. For F169Q, the “fold change of barcode share” value was under 0.012. F169D was tested, and the “fold change of barcode share” value was under 0.0129. F169W was tested, and the “fold change of barcode share” value was under 0.00596. For F169A, the “fold change of barcode share” value was under 0.00577. For F169P, the “fold change of barcode share” value was under 0.0133. In the case of I369W, the “fold change of barcode share” value is reported as 0.00351 ± 0.0017. For I369D, the “fold change of barcode share” value was 0.00606 ± 0.0044. With I369Q the “fold change of barcode share” value was 0.0041 ± 0.003. With I369A the “fold change of barcode share” value was 0.00802 ± 0.0016.

Variants of: B3
Test: as above
Conditions: with Escherichia coli (laboratory strain); antibiotic: carbenicillin; 2× MIC (3.1 µg/mL)
Procedure: as §1
For L90Q, the “fold change of barcode share” value was 0.149 ± 0.041. With V91Q the “fold change of barcode share” value was 0.0689 ± 0.041. With F27D the “fold change of barcode share” value was 0.306 ± 0.049. F27W was tested, and the “fold change of barcode share” value was 0.317 ± 0.092. F27P was tested, and the “fold change of barcode share” value was 0.417 ± 0.042. F27A was tested, and the “fold change of barcode share” value was 0.25 ± 0.0029. F27Q was tested, and the “fold change of barcode share” value was 0.394 ± 0.043. In the case of V28D, the “fold change of barcode share” value is reported as 0.451 ± 0.12. V28Q was tested, and the “fold change of barcode share” value was 0.325 ± 0.017. For V28A, the “fold change of barcode share” value was 0.425 ± 0.028. In the case of V28W, the “fold change of barcode share” value is reported as 1.12 ± 0.73. V28P was tested, and the “fold change of barcode share” value was 0.369 ± 0.1. With L31W the “fold change of barcode share” value was 0.322 ± 0.023. In the case of L31A, the “fold change of barcode share” value is reported as 0.437 ± 0.0084. With L31P the “fold change of barcode share” value was 0.307 ± 0.054. In the case of L31Q, the “fold change of barcode share” value is reported as 0.4 ± 0.15. L31D was tested, and the “fold change of barcode share” value was 0.634 ± 0.35. In the case of L62D, the “fold change of barcode share” value is reported as 0.386 ± 0.049.

Same assay, conditions: with Escherichia coli (laboratory strain); antibiotic: gentamicin; 2× MIC (MIC 0.45 µg/mL)
F27D was tested, and the “fold change of barcode share” value was 0.0401 ± 0.031. With F27W the “fold change of barcode share” value was 0.00857 ± 0.0074. In the case of F27P, the “fold change of barcode share” value is reported as 0.0044 ± 0.00068. With F27A the “fold change of barcode share” value was 0.0269 ± 0.026. In the case of F27Q, the “fold change of barcode share” value is reported as 0.00694 ± 0.005. In the case of V28D, the “fold change of barcode share” value is reported as 0.0101 ± 0.0024. For V28Q, the “fold change of barcode share” value was under 0.0035. With V28A the “fold change of barcode share” value was under 0.00477. V28P was tested, and the “fold change of barcode share” value was 0.0106 ± 0.0097. For L31W, the “fold change of barcode share” value was under 0.00594. For L31A, the “fold change of barcode share” value was under 0.00919. With L31P the “fold change of barcode share” value was under 0.00855. L31Q was tested, and the “fold change of barcode share” value was 0.0224 ± 0.0016. For L31D, the “fold change of barcode share” value was 0.0386 ± 0.0089. L62A was tested, and the “fold change of barcode share” value was under 0.0192. In the case of L62W, the “fold change of barcode share” value is reported as under 0.0195. In the case of L62D, the “fold change of barcode share” value is reported as under 0.0192.

— the supplement of paper PMC11876631
